Data: PubChem BioAssay AID1346428 (National Center for Advancing Translational Sciences (NCATS), 2018)
Values joined by “and” are separate entries in the source; they are usually repeats but may differ in a detail not shown here. Equal entries are not always repeated. The whole screen tested about 48,000 compounds, of which about 1,200 (2.5%) were called active. About 2% were inconclusive and are not listed.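 Rule for the calls: active = activation of at least 60% and not above a set upper limit (about 1 call in 100 departs from these limits); inconclusive = activation of 40% to 60%, or above that upper limit; inactive = activation under 40%.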 The list shows a part of the results.

Molecular target: Probable G-protein coupled receptor 32 (Homo sapiens) (UniProt O75388)
UniProt O75388, sequence (O75388 whole entry, looked up): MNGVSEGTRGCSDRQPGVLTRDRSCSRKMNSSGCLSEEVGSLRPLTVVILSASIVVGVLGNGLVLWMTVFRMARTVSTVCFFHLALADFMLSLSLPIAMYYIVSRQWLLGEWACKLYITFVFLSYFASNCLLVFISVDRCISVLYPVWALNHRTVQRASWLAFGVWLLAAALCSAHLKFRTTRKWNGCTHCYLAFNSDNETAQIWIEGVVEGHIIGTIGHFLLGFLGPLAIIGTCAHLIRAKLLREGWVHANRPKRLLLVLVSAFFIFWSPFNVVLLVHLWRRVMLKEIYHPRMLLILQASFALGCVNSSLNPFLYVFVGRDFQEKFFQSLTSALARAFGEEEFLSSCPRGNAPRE
Assay: qHTS for Agonists of Human Resolvin D1 Receptor DRV1; note: 0% is about no effect
Details: CHO-K1 GPR32 beta-arrestin PathHunter luminescence, 90 min; at 76.9 µM; hits give high values; zero percent set by DMSO-only wells
Outline: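 Using DMSO wells as EC0, agonist-induced signal was taken as chemiluminescence from beta-Gal reconstituted upon beta-arrestin recruitment to GPR32 in CHO-K1 cells after 90 min compound treatment.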

activation, inactive:
NS(=O)(=O)c1cc2c(cc1Cl)NC(C1CC3C=CC1C3)NS2(=O)=O (centres undefined) 20.2% and -0.0339%, O=C(Nc1ccc(F)cc1F)c1cc(CN2CCOCC2)on1 2.99%, CCc1cc(=O)oc2c(C)c3c(cc12)CN(CCc1ccccc1)CO3 -34.7%, COc1ccc(OC)c(NS(=O)(=O)c2ccc3c(c2)CCCN3C(=O)C2CCC2)c1 -18.5%, COc1ccc(CNC(=O)C2=Cc3cccc(OC)c3OC2)cc1OC -17.1%, Cc1ccc(S(=O)(=O)Nc2ccc3c(c2)CCCN3C(=O)c2cccs2)cc1C -21.5%, COc1cc(Br)c(C2CC(=O)Nc3cc4c(cc32)OCCO4)cc1OC (centres undefined) 0.201%, COc1cccc(C(c2sc3nc(-c4ccco4)nn3c2O)N2CCC3(CC2)OCCO3)c1 (centres undefined) -5.27%, CCc1nn(CC(=O)NCCN(CC(C)C)CC(C)C)c(=O)c2cc3sc(C)cc3n12 -8.49%, Cc1cccc(NC(=O)C(Cc2ccccc2)N2Cc3ccccc3C2=O)c1C (centres undefined) -26.4%, CCc1ccc(NC(=O)c2ccc(F)c(S(=O)(=O)N3CCc4ccccc4C3)c2)cc1 -9.55%, CNS(=O)(=O)c1cn(CC(=O)Nc2ccc(C)cc2C)cc1S(=O)(=O)NC -1.36%, Cc1ccc(C2=Nc3ccccc3NC(c3ccncc3)=N2)cc1 15.2%, CCOc1ccc(-c2nc3c(C#N)c[nH]n3c2NC2CCCC2)cc1 -35.2%, Cc1ccc(-c2cn3c(n2)sc2cc(C(=O)NCCCc4ccccc4)ccc23)cc1 -15.5%, COc1ccc(NS(=O)(=O)c2ccc(NC(=O)N3CCCC3)cc2)cc1 36.9%, CCOC(=O)c1cc(-c2ccc(C)cc2)nn1Cc1ccccc1 -11.5%, CCc1ccccc1NC(=O)C1CCCN(S(=O)(=O)c2cccc3nsnc23)C1 (centres undefined) -0.383%, COc1ccc(CCNC(=O)CCc2c(C)nc3c(c(C)nn3-c3ccc(C)cc3)c2C)c(OC)c1 -0.584%, COc1ccc(Nc2cc(C)nc(-n3nc(C)cc3C)n2)cc1Cl -16.7%, COc1ccc(-c2cc(C(=O)Nc3c(Cl)cccc3Cl)no2)cc1OC -8.41%, Cc1ccc(-n2c3c(c(=O)[nH]c2=O)C(NC(=O)c2ccccc2F)(C(F)(F)F)C(=O)N3)cc1C (centres undefined) -5.51%, CCc1ccc(N2CCn3c2nc2c3c(=O)n(Cc3ccc(F)cc3)c(=O)n2C)cc1 -11.1%, COc1ccc2c(c1)c(=O)c(S(=O)(=O)c1ccc(C)c(C)c1)cn2CC(=O)Nc1ccccc1 12.6%, CCN(CCCNC(=O)c1cc2c(=O)n(CC)c3ccccc3c2s1)c1cccc(C)c1 -6.64%, Cc1ccccc1-c1nc(CS(=O)(=O)CC(=O)NC(C)c2ccccc2)c(C)o1 (centres undefined) 1.53%, O=C(Nc1cc(F)ccc1F)C1COc2ccccc2C1 (centres undefined) 10.5%, COc1cc(-c2noc(C3CC(=O)N(c4ccc5c(c4)OCCO5)C3)n2)cc(OC)c1OC (centres undefined) 6.48%, COc1ccc(Cl)cc1NC(=O)CN(c1cc(C)cc(C)c1)S(=O)(=O)c1c(C)n[nH]c1C 45.1%, CCc1ccc(NC(=O)c2cc3c(=O)n(Cc4cccs4)ccc3nc2C)cc1 -26.4%, COc1ccc(C(=O)Nc2ccc(-n3nncc3-c3ccc(OC)c(OC)c3)cc2)cc1 -14.7%, Cc1ccc(S(=O)(=O)c2nc(-c3ccccc3)oc2N2CCN(c3ccccc3)CC2)cc1 -27.4%, Cc1ccc(-c2cc(C(=O)O)n(Cc3ccccc3)n2)cc1 -1.85%, Cc1ccc(CNc2ccc(-c3nc(-c4ccco4)no3)cc2[N+](=O)[O-])cc1 24%, CCN(CC)CC(=O)Nc1c(C)cccc1C -6.03% and -12.5%, CCc1nn(CC(=O)NCCCOC)c(=O)c2cc3occc3n12 -12.2%, O=C(CCCn1c(=O)[nH]c2ccccc2c1=O)NCc1ccccc1Cl -24.7%, CCCN(CCC)CCCNC(=O)Cn1cnc2onc(-c3ccc(F)cc3)c2c1=O -3.19%, O=C(Cn1cnc2c(nc3n2CCCCC3)c1=O)Nc1ccc(F)cc1 -5.88%, Cc1ccc(-c2nnc(Nc3ccc(Br)cc3)c3ccccc23)cc1S(=O)(=O)N1CCCCC1 -15.1%, CN(C(=O)c1nc(-c2cccc(F)c2)n2c1CCCCC2)c1ccccc1F -25.7%, Cc1cc(C)c2c(-n3cccc3)c(C(=O)NCCc3ccc(Cl)cc3)sc2n1 9.81%, COC(=O)C(C)Sc1nnc2cc(C)c3cc(C)cc(C)c3n12 (centres undefined) -23.4%, COc1cc(-c2cc(OC)c3c(C)oc(C)c3c(=O)c2)ccc1OC(=O)c1ccccc1C -20.8%, O=C(CN1C(=O)C(c2ccc(F)cc2)=NC12CCCCCC2)Nc1ccc(F)c(Cl)c1 -6.96%, Cc1ccc2c(=O)cc(C(=O)Nc3c(C)n(C)n(-c4ccccc4)c3=O)oc2c1C -2.09%, CCC(=O)NC1CC(=O)N(c2ccc3c(c2)OCCO3)C1 (centres undefined) -11.3%, COc1ccccc1NC(=O)Cn1c(=O)n(Cc2ccco2)c(=O)c2oc3ccccc3c21 -15%, CCCOc1ccc(NC(=O)CC2C(=O)N(c3ccccc3)C(=O)N2CCC(C)C)cc1 (centres undefined) -16.9%, COc1cc(C2c3c(-c4ccccc4O)n[nH]c3C(=O)N2Cc2ccncc2)ccc1O (centres undefined) -1.7%, CCc1ccc(NC(=O)C2CCN(c3cc(C)nc4c(-c5ccc(Cl)cc5)c(C)nn34)CC2)cc1 11.4%, COc1cccc(CNC(=O)CC(c2ccc(F)cc2)N2Cc3ccccc3C2=O)c1 (centres undefined) -26%, Cc1ccccc1NC(=O)c1ccccc1NC(=O)c1ccccc1Cl -20.7%, CCc1ccc(NC(=O)CSc2ccc3nnc(CCNS(=O)(=O)c4ccc(OC)cc4)n3n2)cc1 -12.6%
